According to the supplement of paper PMC3334620:
Whole data set: some 33,000 sequences, median “E-score (-0.5 to 0.5)” near -0.013, cut for the highest 2% near 0.3. Some of the results follow.

molecular target: T1, Msn1 (UniProt P22148); assay: PBM E-score (8-mer binding enrichment) (E-score (-0.5 to 0.5)); higher = stronger / more preferred TF binding; most listed sequences are background and not binding sites; settings: protein concentration: 200 nM; construct: GST-full length
T1 sequence: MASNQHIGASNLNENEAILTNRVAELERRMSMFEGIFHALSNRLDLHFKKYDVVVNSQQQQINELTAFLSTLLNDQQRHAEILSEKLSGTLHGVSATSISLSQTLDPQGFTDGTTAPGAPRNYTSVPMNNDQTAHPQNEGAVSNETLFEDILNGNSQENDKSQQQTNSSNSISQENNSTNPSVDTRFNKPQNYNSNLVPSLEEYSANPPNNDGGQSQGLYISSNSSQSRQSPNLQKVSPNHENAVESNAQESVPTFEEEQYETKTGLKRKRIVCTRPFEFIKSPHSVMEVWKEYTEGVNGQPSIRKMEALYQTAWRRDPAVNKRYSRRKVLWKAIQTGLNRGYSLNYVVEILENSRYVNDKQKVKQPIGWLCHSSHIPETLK
Experimental: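 Universal 'all 10-mer' protein binding microarrays (Agilent AMADID 015681) probed with GST-tagged S. cerevisiae TFs (full-length or DBD) made by in vitro transcription/translation (PURExpress), about 100-200 nM. Bound TF was detected with fluorescent anti-GST. Each ungapped 8-mer (which stands for itself and its reverse complement) is scored by the PBM enrichment score (E-score), a modified Wilcoxon-Mann-Whitney statistic from -0.5 to +0.5, computed with the Universal PBM Analysis Suite. Scale: above 0.35 generally sequence-specific binding.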

Sequence	PBM E-score
AAACATTA	-0.0805
CCCACAGG	-0.227
CCGCTTAG	-0.167
TCTAACCA	0.0639
CGGCCGGA	0.0752
CCTACAGC	-0.0784
GCTCGCAC	-0.073
AAGTCAAA	0.133
TGAGGACA	0.46
AAGCACGG	-0.188
CCCTCACG	-0.189
AATCGTGG	0.0628
AATTTTTG	0.234
AGACGACG	-0.192
ATCCAGTA	-0.0383
GCATGCCC	0.101
GGGTTGAC	-0.236
AAAAGGAG	-0.158
CCCTTGTA	-0.0851
TCCGGGAA	0.156
CAGAGATC	-0.0826
TAGGCACA	-0.112
GTGATTTA	0.0986
ATGCCCTC	-0.248
GAGCTCGA	0.0491

Sequence	PBM E-score
CCTTTGTC	0.367
ATCATCGC	-0.0326
CTACAGAA	0.129
CAGAAATA	0.0248
CTCCGAAG	0.0712
AACGGCAC	0.0409
CCAGCGCG	-0.158
CATCGGTC	0.00255
GCAAGAAC	0.151
TCAATTGA	0.099
GCGCCCGC	-0.19
GCGATCCC	-0.192
AACTGAAA	0.123
CTCTCGCA	-0.144
CCCAAGAC	0.0872
CCTGACTC	-0.0525
CAGAGATG	0.157
CATCTTCA	0.0522
AGACCTTC	-0.214
GCCCATCA	-0.169
CAGGATTA	0.113
GTATCAAC	0.113
ACGACGAT	0.0193
CGAGCACC	-0.138
CTTGGGCC	-0.266

Sequence	PBM E-score
AAATATGG	0.0638
ATCAAGGG	-0.0321
ACTGAGAT	-0.0631
AGGGAACA	0.0286
AACTAAAG	0.179
TACGCATA	0.212
CTTGTCGC	0.166
TATCGAAA	0.0812
ACTTGCAC	0.0427
AGACCACC	-0.327
AGGCGGCC	-0.119
AGGTCGAC	0.0284
AGGGAGTA	-0.157
CACGTTGC	-0.0714
AAGTTCAT	0.0759
GAGCGCGC	-0.0891
GGACCCCC	-0.333
AAACGTAT	0.0712
ACCGTAAA	0.0363
ACTGGCAA	0.0309
GCGCAAAA	0.121
AAATGTGG	0.147
GGCCAGAC	0.118
ATTTAGTA	0.216
GGATTAAA	-0.0103

Sequence	PBM E-score
GCGGTTGA	-0.143
TCTGGCCA	-0.0159
ATGGGGCG	-0.1
GCGATACC	-0.216
CCTTAGCA	-0.165
AGAACTGA	0.0524
ATCGACGC	0.123
AATGATAA	0.182
ACACTCCT	-0.126
AATTCCAC	0.158
GGCCAACC	-0.103
TATACGAA	0.132
TATATGAA	0.182
GAGGTATA	0.0048
ATAGTAGA	0.0835
ACGATGCA	-0.0853
AGTATCTG	-0.0612
ACTGTTGA	-0.0664
AAGACACG	0.248
AGTCCGTC	0.206
AAGTTCCT	0.0786
AGTACTAA	0.121
AGATTCCA	0.0417
ATGTTCAA	0.185
ACAATGCA	0.222

Sequence	PBM E-score
CAGGTTGG	-0.102
CCGCACGG	-0.194
CCGCCTTA	-0.165
CGAAAGCC	-0.152
CGTGGTTA	0.0491
TGAACAAA	0.175
ATTCTATG	0.0183
AGGATATG	0.105
ATACCGAA	0.174
CAGTCTGG	-0.213
ATACGGGC	-0.0422
GCAGAATA	0.039
CAACTCAC	-0.0341
ACGAGCCC	-0.291
CATCCAAG	-0.0981
CCTTCAAG	-0.201
AGCACGAT	-0.133
AAGGGTAG	-0.157
GCTAGTTA	-0.0898
ACGCACTA	0.0224
CTTTGCCC	-0.115
AGCGCGGA	0.0344
CCCCTGAA	-0.0139
ATGTATGG	-0.0391
ATCTATTA	-0.00074

Sequence	PBM E-score
AGACCCCC	-0.376
TCCAAGGA	0.0257
AGTCTAGA	-0.0412
ATTGAGTG	-0.0801
GATCAGGC	-0.0213
CTTCAGTC	-0.103
TCTTCGCA	0.11
AACGAAGG	-0.197
TACTCCAA	-0.074
ACGTCAAC	-0.0562
GATCGACA	0.0819
GTCGCAGA	0.116
AATCTTGT	0.139
ACCCTCCC	-0.0932
CCATTTGA	-0.0557
CGTGCTAA	-0.0653
TACAATCA	0.0162
AAATGTAG	-0.0386
AAGAGATA	-0.151
ATTCGTAC	0.0951
GATGTTCC	0.0607
ACAGCTCC	-0.0585
GCTAATCA	-0.0044
AAGATGGA	0.066
AGCGTTGG	-0.0707

Sequence	PBM E-score
GCTGCCCA	-0.113
TATTGCCA	-0.011
GCGCTGGA	-0.199
CGAAGTCA	0.0277
ATTCGCTC	0.225
GAGCACTA	-0.0253
ATCGCAAA	0.0406
GACACTAC	0.15
ATACTCGC	0.0688
CTAGAATA	0.18
GATCACGA	0.0365
CGCGTAGC	-0.121
CCCTACGG	-0.302
CTAACACC	-0.136
CGAGCTCG	0.179
GGCGTAGA	-0.208
AATTCGCA	0.0448
GGGCTCAA	-0.136
GGATCCAC	-0.148
GATGCCGC	0.0367
CAGAGGTA	-0.0212
GTCTTCAA	0.0796
